Measurements taken from patent US11178870B2 (priority 2017, dated 2021).

How the values were obtained:
Magnaporthe grisea = format: in vivo; details: class of control value, Table 7
Phytophthora infestans = format: in vivo; details: class of control value, Table 7
[1] = system: Colletotrichum orbiculare; details: 250 ppm spray, 2.5 ml/pot; investigated 6 to 10 days after inoculation

Row | Compound | Test A control value (blast on rice) (Magnaporthe grisea) | Test F control value (late blight on tomato) (Phytophthora infestans) | Test H control value (anthracnose on cucumber) [1]
1 | O=c1ccc(-c2cc(Br)sc2Cl)c(-c2c(F)cccc2F)n1CC(F)F [Compound 401] | L (L shows the control value of 50% or less) | L (L shows the control value of 50% or less) | L (L shows the control value of 50% or less)
2 | COc1ccc(-c2c(-n3cc(F)cn3)cc(Br)c(=O)n2CC(F)F)c(Br)c1 [Compound 450] | H (H shows the control value more than 50%) | L (L shows the control value of 50% or less) | –
